Structures can show the parent of a compound that is named as a salt. ± gives the standard deviation of the averaged measurements. The full ranking holds about 3,100 compounds; the median of “mean cytoplasmic OPP incorporation (global translation) relative to DMSO” is about 100, and the lowest 2% start at about 56. The list shows a part of the results.
Test system: U2OS
Experiment: mean cytoplasmic OPP incorporation (global translation) relative to DMSO (% of DMSO); higher = more protein synthesis
Settings: 10 µM; 24 h
Method: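 Primary image-based screen in U2OS cells: compounds at 10 uM for 24 h, then a 1 h o-propargyl-puromycin (OPP) pulse, click labelling, and high-throughput microscopy. Mean cytoplasmic OPP intensity and nuclei count were normalised to DMSO wells within each plate (DMSO = 100) and averaged over triplicate plates.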

| SMILES | mean cytoplasmic OPP incorporation |
| --- | --- |
| Nc1nc(F)nc2c1ncn2[C@@H]1O[C@H](COP(=O)(O)O)[C@@H](O)[C@@H]1O [Fludarabine Phosphate (Fludara)] | 100 |
| O=C(NOCC1CC1)c1ccc(F)c(F)c1Nc1ccc(I)cc1Cl | 93.6 |
| CC1(C)CCC(c2ccc(Cl)cc2)=C(CN2CCN(c3ccc(C(=O)NS(=O)(=O)c4ccc(N[C@H](CCN5CCOCC5)CSc5ccccc5)c(S(=O)(=O)C(F)(F)F)c4)cc3)CC2)C1 [ABT-263 (Navitoclax)] | 112 |
| COc1[nH]c2ccc(F)cc2c1C(=O)OCC1CCN(CCNS(C)(=O)=O)CC1.NS(=O)(=O)O | 99.7 |
| O=C(OCCN1CCOCC1)C1(c2ccccc2)CCCCC1 [PRE-084 hydrochloride] | 101 |
| CC(C)C[C@H](NC(=O)[C@H](Cc1ccccc1)NC(=O)c1cnccn1)B(O)O [Bortezomib (Velcade)] | 58.9 |
| COc1ccc(CC(C)NCC(O)c2ccc(O)c(NC=O)c2)cc1 (stereo not given) [Formoterol hemifumarate] | 93.6 |
| COc1ccc(CC(C)NCC(O)c2ccc(O)c(NC=O)c2)cc1 (stereo not given) [Formoterol fumarate] | 103 |
| CS(=O)(=O)c1ccc(C(=O)Nc2ccc(Cl)c(-c3ccccn3)c2)c(Cl)c1 [Vismodegib (GDC-0449)] | 104 |
| COc1ccc(-c2coc3cc(O)ccc3c2=O)cc1 [Formononetin (Formononetol)] | 97.7 |
| CN1CCN(S(=O)(=O)c2ccc(-c3cnc(N)c(C(=O)Nc4cccnc4)n3)cc2)CC1 | 106 |
| CNc1nc(-c2ccc3c(N)n[nH]c3c2)cc(N2C[C@@H](C(=O)NC3CCCCC3)CC[C@H]2C)n1 | 96.9 |
| O=C(Nc1cc(C(F)(F)F)cc(C(F)(F)F)c1)c1cc(Cl)ccc1O | 103 |
| CN(C)[C@@H]1C(O)=C(C(N)=O)C(=O)[C@@]2(O)C(O)=C3C(=O)c4c(O)cccc4[C@@](C)(O)[C@H]3C[C@@H]12 [Tetracycline hydrochloride] | 97.9 |
| NC(=O)N1CCC(CC(=O)N2CCC([C@H]3c4ncc(Br)cc4CCc4cc(Cl)cc(Br)c43)CC2)CC1 | 97.4 |
| C[C@H](N[C@@H](CCc1ccccc1)C(=O)O)C(=O)N1CCC[C@H]1C(=O)O [Enalaprilat dihydrate] | 102 |
| O=C1N[C@H](C(=O)O)CS1 [Procysteine] | 119 |
| C[C@]12CCC(=O)C=C1CC[C@@H]1[C@@H]2C(=O)C[C@@]2(C)[C@H]1CC[C@]2(O)C(=O)CO [Cortisone] | 93 ± 5.6 |
| COC(=O)[C@H](c1ccccc1Cl)N1CCc2sccc2C1 [Clopidogrel (Plavix)] | 96.6 |
| COCCCC/C(=N\OCCN)c1ccc(C(F)(F)F)cc1 [Fluvoxamine maleate] | 111 ± 4.7 |
| CCCCC1CCC(c2nc(-c3ccncc3)no2)CC1 (stereo not given) | 107 |
| O=C(O)c1cn(-c2ccc(F)cc2)c2cc(N3CCNCC3)c(F)cc2c1=O [Sarafloxacin] | 89.8 |
| C[C@@H](NCc1cc(Br)cc2[nH]c(=O)c(=O)[nH]c12)P(=O)(O)O | 96.4 |
| CC[C@H](/C=C/[C@@H](C)[C@H]1CC[C@H]2[C@@H]3CC=C4C[C@@H](O)CC[C@]4(C)[C@H]3CC[C@]12C)C(C)C [Stigmasterol (Stigmasterin)] | 95.3 |
| COc1cccc(/C=N/N=C/c2cccc(OC)c2)c1 | 99.7 |

| SMILES | mean cytoplasmic OPP incorporation |
| --- | --- |
| O=C(O)c1ccc(O)c(O)c1 [Protocatechuic acid] | 103 |
| O=C(NC[C@H]1CN(c2ccc(N3CCOCC3=O)cc2)C(=O)O1)c1ccc(Cl)s1 [Rivaroxaban (Xarelto)] | 111 |
| C[C@@H]1C[C@H]2[C@@H]3C[C@H](F)C4=CC(=O)C=C[C@]4(C)[C@@]3(F)[C@@H](O)C[C@]2(C)[C@@]1(O)C(=O)CO [Flumethasone] | 103 |
| Cc1cc2c(cc1CC(=O)c1sccc1S(=O)(=O)Nc1onc(C)c1Cl)OCO2 | 107 |
| O=C(O)Cc1ccc(-c2ccccc2)cc1 [Felbinac] | 98.9 |
| COc1ccc(CN2C(=O)C(=O)c3cc(OC(F)(F)F)ccc32)cc1 | 102 |
| c1ccc(NCc2ccc(CNc3ccccn3)cc2)nc1 | 102 |
| NCc1ccccc1CC(=O)N[C@@H]1C(=O)N2C(C(=O)O)=C(CSc3nnnn3CC(=O)O)CS[C@H]12 [Ceforanide] | 99.6 |
| N=C(NCCCCCCNC(=N)NC(=N)Nc1ccc(Cl)cc1)NC(=N)Nc1ccc(Cl)cc1 [Chlorhexidine] | 83.6 |
| COc1c2occc2cc2ccc(=O)oc12 [Methoxsalen (Oxsoralen)] | 124 |
| COc1ccc2c(OCc3nnc4ccc(-c5ccccc5)nn34)ccnc2c1 | 100 |
| CN1CCN(C2=Nc3ccccc3Oc3ccc(Cl)cc32)CC1 [Loxapine succinate] | 112 |
| N[C@H](C(=O)O)c1ccc(O)c(C(=O)O)c1 [(S)-3-Carboxy-4-hydroxyphenylglycine] | 104 |
| C[C@@]1(C(=O)Nc2ccc(F)nc2)CCCN1c1nc(Nc2cc(C3CC3)n[nH]2)c2cccn2n1 | 112 |
| Clc1ccc(CCC(Cn2ccnc2)Sc2c(Cl)cccc2Cl)cc1 (stereo not given) [Butoconazole nitrate] | 103 |
| N#Cc1ccc(C(c2ccc(C#N)cc2)n2cncn2)cc1 [Letrozole] | 116 |
| C[N+]1(C)CCC(OC(=O)C(O)(c2ccccc2)C2CCCC2)C1 (stereo not given) [Glycopyrrolate] | 110 |
| O=C(Nc1cccc(Cl)c1)c1ccccn1 | 97.5 |
| O=C1NC(=O)c2c1c(-c1ccccc1)cc1[nH]c3ccc(O)cc3c21 | 51.8 |
| CN(C)CCCN1c2ccccc2Sc2ccc(C(F)(F)F)cc21 [Triflupromazine hydrochloride] | 109 |
| CCN(CC)CCOC(=O)C1(C2CCCCC2)CCCCC1 [Dicyclomine hydrochloride] | 106 |
| CCCCC(O)c1ccccc1 (stereo not given) [Fenipentol] | 99.5 |
| CC(N/C(=N\C#N)Nc1ccncc1)C(C)(C)C (stereo not given) [Pinacidil] | 94.1 |
| CC(N/C(=N\C#N)Nc1ccncc1)C(C)(C)C (stereo not given) [Pinacidil H2O] | 105 |
| CCCc1cc(C)[nH]c(=O)c1CNC(=O)c1cc(-c2ccc(N3CCN(C(C)C)CC3)nc2)cc2c1cnn2C(C)C | 123 |
